{"source": "PubChem BioAssay AID1347165", "about": "(National Center for Advancing Translational Sciences (NCATS), 2019)", "note": "The whole screen tested about 220,000 compounds, of which about 5,700 (2.6%) were called active. This list was built around the results that the source calls inconclusive (neither active nor inactive); the mix of calls is not that of the screen. Calls follow the shape of the dose curve; as a rule, active = well fitted inhibition curve with a large enough effect; inconclusive = small, poorly fitted or top-dose-only effect; inactive = no such curve, though single readings can be large or run the other way. Where the call is inconclusive, the potency comes from a doubtful curve fit. Potency is read from the fitted curve at half-maximal effect; tags tell the direction and shape of the fitted curve.", "data": [{"biological_target": "Lysine-specific demethylase 5B (Homo sapiens) (UniProt Q9UGL1)", "sequence (Q9UGL1 whole entry, looked up)": "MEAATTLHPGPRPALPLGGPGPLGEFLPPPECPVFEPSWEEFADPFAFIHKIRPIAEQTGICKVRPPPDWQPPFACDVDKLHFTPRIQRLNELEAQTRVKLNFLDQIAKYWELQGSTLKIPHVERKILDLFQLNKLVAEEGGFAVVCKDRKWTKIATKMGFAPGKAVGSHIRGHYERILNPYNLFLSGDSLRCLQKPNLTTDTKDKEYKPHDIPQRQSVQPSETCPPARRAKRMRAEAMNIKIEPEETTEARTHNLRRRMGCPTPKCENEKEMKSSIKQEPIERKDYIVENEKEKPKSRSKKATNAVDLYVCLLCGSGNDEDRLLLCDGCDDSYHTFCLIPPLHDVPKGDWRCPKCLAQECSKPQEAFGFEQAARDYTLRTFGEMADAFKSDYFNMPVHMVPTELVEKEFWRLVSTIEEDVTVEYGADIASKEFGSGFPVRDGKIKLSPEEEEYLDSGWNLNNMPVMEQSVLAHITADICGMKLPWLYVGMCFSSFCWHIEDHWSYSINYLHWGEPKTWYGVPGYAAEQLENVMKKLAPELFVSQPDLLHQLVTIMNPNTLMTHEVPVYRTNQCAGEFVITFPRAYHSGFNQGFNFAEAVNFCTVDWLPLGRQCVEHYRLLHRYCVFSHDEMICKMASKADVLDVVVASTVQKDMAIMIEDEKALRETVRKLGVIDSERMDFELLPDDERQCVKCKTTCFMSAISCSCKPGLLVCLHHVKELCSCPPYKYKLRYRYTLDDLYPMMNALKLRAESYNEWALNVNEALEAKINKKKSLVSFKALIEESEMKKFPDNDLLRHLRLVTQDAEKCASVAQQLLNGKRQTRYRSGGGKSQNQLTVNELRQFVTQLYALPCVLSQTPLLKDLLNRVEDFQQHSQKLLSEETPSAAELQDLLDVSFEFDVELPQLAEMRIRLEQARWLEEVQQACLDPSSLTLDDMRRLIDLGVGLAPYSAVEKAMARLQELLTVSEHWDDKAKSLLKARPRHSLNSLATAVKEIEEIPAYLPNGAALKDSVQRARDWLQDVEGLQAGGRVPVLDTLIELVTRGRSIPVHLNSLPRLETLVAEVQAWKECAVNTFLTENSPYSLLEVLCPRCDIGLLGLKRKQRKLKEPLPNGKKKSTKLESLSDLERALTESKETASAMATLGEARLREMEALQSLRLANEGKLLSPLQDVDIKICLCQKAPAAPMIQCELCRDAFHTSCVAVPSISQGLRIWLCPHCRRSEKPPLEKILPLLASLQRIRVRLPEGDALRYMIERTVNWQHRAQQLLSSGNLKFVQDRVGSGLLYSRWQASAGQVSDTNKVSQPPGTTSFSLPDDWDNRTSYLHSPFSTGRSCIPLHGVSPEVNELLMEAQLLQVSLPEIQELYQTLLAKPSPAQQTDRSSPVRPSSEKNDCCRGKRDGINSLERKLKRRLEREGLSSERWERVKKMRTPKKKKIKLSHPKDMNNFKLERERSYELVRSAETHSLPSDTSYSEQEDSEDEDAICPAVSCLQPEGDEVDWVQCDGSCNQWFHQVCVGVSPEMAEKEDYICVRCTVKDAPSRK", "test": "Primary screen for KDM5B Histone Demethylases FDH-coupled qHTS; also: nearly all actives have a fitted effect of over 70% in size; as to activity change, negative = inhibition: 0% is about no effect", "conditions": "FDH-coupled NADH fluorescence (FDH is formaldehyde dehydrogenase); activity change, negative = inhibition: at 57.7 µM (top of the series) unless noted", "method_in_brief": "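Here, H3K4me3 peptide (12.5 µM in substrate mix) is demethylated by KDM5BΔAP, 200 nM final, after 10 min compound exposure. Formaldehyde product is coupled through FDH (0.25 U/mL in mix) to NADH fluorescence; 30-min ΔRFU feeds dose-response curves.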", "values": [{"smiles": "Fc1ccc(Nc2nc(SCc3cccc(Cl)c3)nc3ccccc23)cc1", "Potency": "inconclusive: 35.5 µM [inhibitor, partial curve, poor fit]"}, {"smiles": "COc1cc(Cl)c(C)cc1NC(=O)CCc1c(C)nc2c3cccnc3nn2c1C", "Potency": "inconclusive: 15.8 µM [inhibitor, partial curve, poor fit]"}, {"smiles": "CN1c2cc(C(=O)NCc3ccc(OC(F)(F)F)cc3)ccc2C(=O)N2CCCCC21", "note": "(stereo unspecified)", "Potency": "inconclusive: 25.1 µM [inhibitor, partial curve, poor fit]"}, {"smiles": "COCCn1c(-c2ccc(OCc3ccccc3)c(OC)c2)nc2c1c(=O)[nH]c(=O)n2CC(C)C", "Potency": "inconclusive: 1.78 µM [inhibitor, partial curve, poor fit]"}, {"smiles": "O=C(Cc1c[nH]c2ncc(-c3ccc(F)cc3)cc12)N1CCOCC1", "Potency": "active: 28.2 µM"}, {"smiles": "CS(=O)(=O)c1ccccc1-c1nnc(NC(=O)c2ccc3c(c2)OCCO3)o1", "Potency": "inconclusive: 25.1 µM [inhibitor, partial curve, poor fit]"}, {"smiles": "CC(C)Cc1nc2nccc(-c3ccccc3)n2n1", "Potency": "active: 28.2 µM"}, {"smiles": "O=C(Nc1nc2n(n1)C(c1ccccc1)C=C(c1ccccc1)N2)c1ccccc1", "note": "(stereo unspecified)", "Potency": "inconclusive: 8.91 µM [inhibitor, partial curve, poor fit]"}, {"smiles": "CN(CC1Cc2ccccc2O1)C(=O)c1coc(COc2ccc3c(c2)OCO3)n1", "note": "(stereo unspecified)", "Potency": "inconclusive: 7.94 µM [inhibitor, partial curve, poor fit]"}, {"smiles": "Cc1cc(=O)oc(C)c1C(=O)OCC(=O)NCC1CCCO1", "note": "(stereo unspecified)", "activity change, negative = inhibition": "inactive: 13.6%"}, {"smiles": "O=C(O)c1ccccc1OCc1cn2ccccc2n1", "Potency": "inconclusive: 35.5 µM [inhibitor, single point]"}, {"smiles": "N#CCCN(C(=O)Cn1nc(Cc2ccncc2)c2ccccc2c1=O)c1ccccc1", "activity change, negative = inhibition": "inactive: -6.7%"}, {"smiles": "COc1ccc(C(=O)c2oc3ccc(NC(=O)c4ccncc4)cc3c2C)cc1", "activity change, negative = inhibition": "inactive: -3.61%"}, {"smiles": "Cn1c(N)c(-c2csc(NC3CC3)n2)c(=O)n(C)c1=O", "Potency": "inconclusive: 14.1 µM [inhibitor, single point]"}, {"smiles": "COc1ccc2c(COC(=O)CNC(=O)c3ccc(C)c(C)c3)cc(=O)oc2c1", "Potency": "inconclusive: 39.8 µM [inhibitor, single point]"}, {"smiles": "Cn1cc(C(C(=O)O)N2CCN(Cc3ccncc3)CC2)c2ccc(C(=O)O)cc21", "note": "(stereo unspecified)", "Potency": "inconclusive: 28.2 µM [inhibitor, single point]"}, {"smiles": "Cc1ccc(OCCCCn2cnc3ccccc32)cc1", "Potency": "inconclusive: 50.1 µM [inhibitor, single point]"}, {"smiles": "COCCCNc1nc2c(c(=O)n(C)c(=O)n2C)n1Cc1cccc(Br)c1", "activity change, negative = inhibition": "inactive: 3.73%"}, {"smiles": "Cc1ccc(-c2cnc(CCC(=O)NCC3CC3)o2)cc1C", "activity change, negative = inhibition": "inactive: 16%"}, {"smiles": "CCOc1ccc(-n2nc(CO)c(C(=O)NCc3ccccn3)n2)cc1", "Potency": "inconclusive: 28.2 µM [inhibitor, partial curve, poor fit]"}, {"smiles": "CCNC(=O)CN1CCCC(N2CCN(Cc3ccc4c(c3)OCO4)CC2)C1", "note": "(stereo unspecified)", "Potency": "inconclusive: 10 µM [inhibitor, partial curve, poor fit]"}, {"smiles": "CCOC(=O)CSc1nc2c(c(=O)[nH]c(=O)n2C)n1Cc1cccc(Br)c1", "activity change, negative = inhibition": "inactive: 10.5%"}, {"smiles": "Cc1cc(N2CCN(c3ccc(F)cc3)CC2)n2nc(Cc3cccc(F)c3)nc2n1", "activity change, negative = inhibition": "inactive: 12.7%"}, {"smiles": "CCOC(=O)c1c(C)[nH]c(C(=O)OCc2ccc(C(=O)OC)cc2)c1C", "activity change, negative = inhibition": "inactive: -0.774%"}, {"smiles": "CCOP(=O)(OCC)c1nc(-c2ccco2)oc1NCc1ccccc1Cl", "Potency": "inconclusive: 25.1 µM [inhibitor, partial curve, poor fit]"}, {"smiles": "CCC(C(=O)N(C)Cc1ccc(OC)c2ncccc12)n1cccn1", "note": "(stereo unspecified)", "Potency": "inconclusive: 31.6 µM [inhibitor, partial curve, poor fit]"}, {"smiles": "N#Cc1c(Nc2ccc(Cl)cc2)s[nH]c1=O", "Potency": "inconclusive: 11.2 µM [inhibitor, partial curve, poor fit]"}, {"smiles": "Cc1ccc(NC(=O)Cn2ccn3nc4c(c3c2=O)CC(C)CC4)cc1", "note": "(stereo unspecified)", "Potency": "inconclusive: 39.8 µM [inhibitor, single point]"}, {"smiles": "CC(C)NC(=O)c1cc(-c2ccc(S(C)(=O)=O)cc2)c2cnn(C)c2n1", "Potency": "active: 89.1 µM"}, {"smiles": "Cc1ccc(NC(=O)C2=Cc3sc4c(c3CS2)CCCC4)c(C)c1", "Potency": "inconclusive: 14.1 µM [inhibitor, partial curve, poor fit]"}, {"smiles": "Cc1ccc(-c2nc(CSc3nnc(NCc4ccccc4)s3)co2)cc1", "activity change, negative = inhibition": "inactive: 1.67%"}, {"smiles": "Cc1ccc(/C=C/c2onc(C)c2S(=O)(=O)N2CCC(C(=O)N3CCC(C)CC3)CC2)cc1", "activity change, negative = inhibition": "inactive: -0.619%"}, {"smiles": "CCc1nn(-c2ccc(OC)cc2)c(Oc2ccccc2F)c1CCC(=O)N1CCSCC1", "activity change, negative = inhibition": "inactive: -8.35%"}, {"smiles": "CCOc1ccc(NC(=O)C2CCCN(c3cnccn3)C2)cc1", "note": "(stereo unspecified)", "Potency": "inconclusive: 35.5 µM [inhibitor, partial curve, poor fit]"}, {"smiles": "CN(C)c1cccc(C(=O)NC(c2ccccc2)c2ccccc2)c1", "Potency": "inconclusive: 35.5 µM [inhibitor, single point]"}, {"smiles": "COc1ccc2[nH]c(CNC(=O)C(c3ccc(F)cc3)N(C)C)cc2c1", "note": "(stereo unspecified)", "Potency": "inconclusive: 12.6 µM [inhibitor, partial curve, poor fit]"}, {"smiles": "Cc1ccc(C)c(N=Cc2ccccc2[N+](=O)[O-])c1", "Potency": "inconclusive: 39.8 µM [inhibitor, single point]"}, {"smiles": "Cc1cc(C)n(-c2nc3ccccc3nc2NCc2ccccc2)n1", "Potency": "inconclusive: 22.4 µM [inhibitor, partial curve, poor fit]"}, {"smiles": "CC(C)CCN1CCn2c(nnc2-c2ccccc2)C1", "activity change, negative = inhibition": "inactive: 11.4% [at 149 µM]"}, {"smiles": "Cc1ccccc1C1C=C(c2ccccc2)OC(c2ccccc2)=C1C=O", "note": "(stereo unspecified)", "activity change, negative = inhibition": "inactive: -13.1%"}, {"smiles": "O=C(NCC1(COc2cnccn2)C[C@@H](O)[C@@H](O)C1)C1CC1", "note": "(stereo partly specified)", "Potency": "inconclusive: 12.6 µM [inhibitor, partial curve]"}, {"smiles": "O=C(Nc1nnc(C2=COCCO2)o1)c1cccc(Br)c1", "Potency": "inconclusive: 25.1 µM [inhibitor, partial curve, poor fit]"}, {"smiles": "Cn1nc(C(=O)NC2CCc3nn(CC4CC4)c(=O)n3CC2)c2ccccc21", "note": "(stereo unspecified)", "Potency": "active: 28.2 µM"}, {"smiles": "Cc1ccccc1CNC(=O)c1oc2c(c1C)-c1nn(Cc3ccc(Cl)cc3)cc1CC2", "Potency": "inconclusive: 17.8 µM [inhibitor, partial curve, poor fit]"}, {"smiles": "CCN(CC)S(=O)(=O)c1ccc2c(c1)N(CC(=O)Nc1ccc(OC)cc1)C(=O)CS2", "activity change, negative = inhibition": "inconclusive: -33.5% [inhibitor]"}, {"smiles": "Cc1ccccc1C(=O)N1CCN(c2oc(-c3ccco3)nc2C#N)CC1", "Potency": "inconclusive: 22.4 µM [inhibitor, partial curve, poor fit]"}, {"smiles": "CCc1ccc(C(=O)C2CCCCC2)cc1", "activity change, negative = inhibition": "inactive: 24.8%"}, {"smiles": "CC1=C(C(=O)Nc2ccc(C)cc2C)C(c2ccc(C(C)C)cc2)NC(=S)N1", "note": "(stereo unspecified)", "Potency": "inconclusive: 28.2 µM [inhibitor, partial curve, poor fit]"}, {"smiles": "COc1cc(-c2onc(C)c2C(=O)NCCCOC(C)C)cc(OC)c1OC", "Potency": "active: 31.6 µM"}, {"smiles": "CCc1ccc(NC(=O)CSc2ccc3nc(-c4ccc(OC)cc4)cn3n2)cc1", "Potency": "inconclusive: 31.6 µM [inhibitor, partial curve, poor fit]"}, {"smiles": "CCC(=O)N1CCC(O)(c2ccccc2)[C@H](N2CCCC2)C1", "note": "(stereo partly specified)", "Potency": "inconclusive: 17.8 µM [inhibitor, single point]"}, {"smiles": "CN(CC(=O)N[C@H]1[C@H]2CCO[C@H]2[C@@H]1N(C)C)Cc1ccc(F)cc1", "activity change, negative = inhibition": "inactive: -19.7%"}, {"smiles": "COc1ccc(CN2CC[C@@](C)(O)[C@H](N3CCCC3)C2)cc1", "Potency": "inconclusive: 15.8 µM [inhibitor, partial curve, poor fit]"}, {"smiles": "O=C(CCc1nc2ccc(Cl)cc2[nH]1)N1CCc2nc3cc(-c4ccccc4)[nH]n3c(=O)c2C1", "Potency": "active: 22.4 µM"}, {"smiles": "O=C(c1[nH]nc2c1COc1ccccc1-2)N1CCCC(Cc2nc(C3CCOCC3)no2)C1", "note": "(stereo unspecified)", "Potency": "inconclusive: 35.5 µM [inhibitor, partial curve, poor fit]"}, {"smiles": "COC(=O)C1=CC(=O)C=C(OC)[C@@]12Oc1cc(C)cc(OC)c1C2=O", "Potency": "inconclusive: 5.01 µM [inhibitor, full curve, poor fit]"}, {"smiles": "C=CCOC(=O)C1=C(C)N=C2SC=C(CC(=O)N3CCCC3)N2C1c1ccccc1Cl", "note": "(stereo unspecified)", "Potency": "active: 28.2 µM"}, {"smiles": "Oc1ccccc1CN1CCNc2cnc(Nc3ccccc3)cc2C1", "Potency": "active: 22.4 µM"}, {"smiles": "Cc1cc(S(=O)(=O)N[C@@H]2CN(C)C[C@H]2CN(C)C)ccc1F", "Potency": "inconclusive: 22.4 µM [inhibitor, partial curve, poor fit]"}, {"smiles": "COc1ccc(-c2cc(N3CCN(C(=O)Cc4c(F)cccc4Cl)CC3)n[nH]2)cc1", "Potency": "inconclusive: 22.4 µM [inhibitor, single point]"}, {"smiles": "Cc1oc(-c2ccc(C(=O)NCCN(C)C)cc2)nc1CS(=O)(=O)c1ccccc1", "Potency": "inconclusive: 17.8 µM [inhibitor, partial curve, poor fit]"}, {"smiles": "COc1ccc(-c2nc3c(C(C)(C)C)cc(C(C)(C)C)c(O)c3o2)cc1", "Potency": "inconclusive: 1.78 µM [inhibitor, partial curve, poor fit]"}, {"smiles": "CCCCOc1cccc(C2C(C(=O)c3ccc(C)o3)=C(O)C(=O)N2Cc2ccco2)c1", "note": "(stereo unspecified)", "Potency": "inconclusive: 17.8 µM [inhibitor, partial curve, poor fit]"}, {"smiles": "CCOc1ccccc1NC(=O)Cc1c(C)[nH]n(-c2nc(-c3ccccc3)cs2)c1=O", "activity change, negative = inhibition": "inactive: -0.446%"}, {"smiles": "Clc1ccc(C2=Nn3c(nnc3-c3ccccn3)SC2)cc1", "activity change, negative = inhibition": "inactive: 5.41%"}, {"smiles": "N#Cc1ccc(-c2ccc(OCC(=O)Nc3cccnc3)cc2)cc1", "Potency": "inconclusive: 31.6 µM [inhibitor, partial curve, poor fit]"}]}]}
